Screen size: about 350,000 compounds; about 9,900 (2.8%) were called active. The inconclusive results got no clear call from the source; some entries with a clear call stand among them for comparison. Calls come from the whole dose curve; as a rule, active = well fitted activation curve with a large enough effect; inconclusive = small, poorly fitted or top-dose-only effect; inactive = no such curve, though single readings can be large or run the other way. No potency is given beside an inconclusive call; the fits are too rough.
Experiment: A quantitative high throughput screen for small molecules that induce DNA re-replication in MCF 10a normal breast cells. Note: nearly all actives have a fitted effect of over 50% in size.
Details: MCF 10A DNA re-replication, Hoechst nuclear intensity, 48 h; series mostly up to 46.1 µM
Potency is the fitted concentration of half-maximal effect; tags give direction and shape of the fitted curve.

| Compound | Potency |
| --- | --- |
| COC(=O)c1ccnc(/C=N/O)c1 | inconclusive [activator, single point] |
| O=C(COc1cc(O)c2c(=O)cc(-c3ccccc3)oc2c1)c1ccc(F)cc1 | inconclusive [activator, single point] |
| COc1cccc(-c2onc3ccc(C4(C)OCCO4)cc23)c1 | active: 18.4 µM |
| CN1CCN(C2CCCCC2NS(=O)(=O)c2ccccc2)CC1 (stereo unspecified) | inactive |
| Cc1ccc2[nH]c(=O)c(CN(Cc3nnnn3Cc3ccccc3)C3CCCC3)cc2c1 | inactive |
| Cc1cccc(OCC(=O)N(Cc2ccco2)C2CCS(=O)(=O)C2)c1C (stereo unspecified) | inconclusive [activator, partial curve, poor fit] |
| COc1ccc(Cc2[nH]n3c(=O)cc(C)nc3c2-c2ccccc2)cc1 | inconclusive [activator, partial curve, poor fit] |
| COc1cccc(/C=N/NC(=O)c2ccoc2C)c1O | inconclusive [activator, single point] |
| Cc1ccc2nc(C)c3c(c2c1)N(c1ccc(F)cc1)CC3 | active: 18.4 µM |
| COc1ccc(F)cc1C1=CC(=O)C[C@H](c2ccc3c(c2)OCO3)C1 | inconclusive [activator, partial curve, poor fit] |
| CCOc1ccc(C(O)Cn2c(=N)n(CCN3CCCCC3)c3ccccc32)cc1 (stereo unspecified) | inconclusive [activator, single point] |
| O=C(NNC(=O)c1cccnc1SCc1cccc([N+](=O)[O-])c1)c1ccccn1 | inconclusive [activator, single point] |
| COc1ccc(CC(=O)NCc2ccc(Cl)cc2)cc1S(=O)(=O)N1CCOCC1 | inactive |
| COc1ccc(-c2cc(C(=O)Nc3cc(C)n(Cc4ccc(Cl)cc4)n3)no2)cc1OC | inconclusive [activator, single point] |
| Cn1c2c(c(=O)n(C)c1=O)C(C(F)(F)F)(C(F)(F)F)N=C(C1CCCCC1)N2 | inconclusive [activator, single point] |
| Cc1ccc(O)c(N=CC2=C(O)c3ccccc3C2=O)c1 | inconclusive [activator, single point] |
| C=CCc1c(C)c(C#N)c2nc3ccccc3n2c1NCCN(C)C | inconclusive [activator, partial curve, poor fit] |
| CCN(CC)c1ccc(NC(=O)CN2C(=O)NC3(CCc4ccccc43)C2=O)cc1 (stereo unspecified) | inactive |
| COCCN=c1scc(-c2cc(OC)ccc2OC)n1/N=C/c1c[nH]c2ccccc12 | inconclusive [activator, full curve, poor fit] |
| CCOC(=O)C1(CCOc2ccccc2)CCN(Cc2cccc3nonc23)CC1 | inconclusive [activator, single point] |
| Cc1ccc2nc(-c3ccc(SCC(=O)N4CCc5ccccc54)nc3)[nH]c2c1 | inconclusive [activator, single point] |
| CCc1nn(CCCN2CCN(c3cccc(Cl)c3)CC2)c(=O)n1CCOc1ccccc1 | inconclusive [activator, partial curve, poor fit] |

| Compound | Potency |
| --- | --- |
| CC(Oc1ccccc1F)C(=O)Nc1ccc2ccccc2c1 (stereo unspecified) | inconclusive [activator, full curve] |
| CCn1cc(CNC(=O)c2ccc3nc(Cc4ccccc4F)oc3c2)cn1 | inconclusive [activator, single point] |
| O=C(O)CCn1cc(C2CC(c3ccccc3)=NN2c2ccccc2)c(-c2ccccc2)n1 (stereo unspecified) | active: 11.6 µM |
| CC(C)CCSc1ncnc2c1oc1nc3c(cc12)COC(C)(C)C3 | active: 5.8 µM |
| O=C(CCNc1cccc(F)c1)c1cccc([N+](=O)[O-])c1 | inconclusive [activator, single point] |
| Cc1cccc(CSC(=N)N)c1 | inactive |
| CCc1nc(C)cn1S(=O)(=O)c1ccc([N+](=O)[O-])cc1 | inactive |
| CC(=O)NCCn1c(C)cc2ccccc21 | inconclusive [activator, partial curve, poor fit] |
| C#CCOCCOCCOCCNc1nc(N2CCN(C(=O)Cn3cc(CCCCN)nn3)CC2)nc(N2CCN(C(=O)Cn3cc(CCCN=C(N)N)nn3)CC2)n1 | inactive |
| O=c1cc(CSc2nnc(NC3CCCCC3)s2)nc2sccn12 | inconclusive [activator, single point] |
| CC(C)(C)C(=O)Nc1ccc(N2CCCC2)cc1 | inactive |
| COC(=O)c1sc(NC(=O)c2ccc(Cn3cc(Cl)cn3)o2)c(C#N)c1C | inconclusive [activator, single point] |
| CCCCOc1ccc(OCCNS(=O)(=O)N(C)C)cc1 | inconclusive [activator, single point] |
| O=C(NCCc1ccccc1)C1CCN(S(=O)(=O)c2cccc3nsnc23)CC1 | inconclusive [activator, single point] |
| C/C(=N\NC(=O)c1cc(-c2cccnc2)nc2ccccc12)c1ccccc1O | inconclusive [activator, single point] |
| Cc1ccc(-c2cc(N)n(Cc3ccc(Cl)cc3)n2)cc1 | inconclusive [activator, single point] |
| N#C/C(=C/c1cccn1-c1cccc(C(=O)O)c1)c1ccc(Cl)cc1 | inconclusive [activator, single point] |
| Cc1cc(OCCN2CCCC2)ccc1[N+](=O)[O-] | inconclusive [activator, partial curve, poor fit] |
| C=CCc1cccc(CNc2nc3ccccc3n2C)c1O | inconclusive [activator, single point] |
| O=C(Nc1ccc2nc(-c3ccc(Br)o3)[nH]c2c1)c1ccco1 | inconclusive [activator, partial curve, poor fit] |
| CC(=O)N1CCc2c(sc(NC(=O)C3CC3)c2-c2nc3ccccc3s2)C1 | active: 23.1 µM |
| COc1ccccc1C(=O)Nc1ccnn1C1CCN(C2CCSCC2)CC1 | inconclusive [activator, single point] |

| Compound | Potency |
| --- | --- |
| CCc1ccc(C(=O)/C=C/NCc2ccc(F)cc2)cc1 | inconclusive [activator, partial curve, poor fit] |
| CC(=O)c1cccc(NC(=O)c2ccc([N+](=O)[O-])o2)c1 | active: 4.11 µM |
| C[C@@H]1CN([C@@H](C)CO)C(=O)c2cccc(NS(C)(=O)=O)c2O[C@H]1CN(C)Cc1ccc(Oc2ccccc2)cc1 | inconclusive [activator, full curve, poor fit] |
| Cc1cccc(C)c1NC(=O)C1CCCN(CCCc2ccccc2)C1 (stereo unspecified) | inconclusive [activator, full curve, poor fit] |
| O=C(NCCc1cn2ccccc2n1)c1cc(COc2ccc3ncccc3c2)on1 | inconclusive [activator, single point] |
| Oc1ccc(O)c(Cc2nc3ccccc3s2)c1 | inconclusive [activator, single point] |
| Cn1c(Cc2ccccc2)nnc1SCC(=O)NCCc1ccccc1 | active: 0.58 µM |
| Cc1ccccc1N1CC(C(=O)Nc2nnc(SCc3cccnc3)s2)CC1=O (stereo unspecified) | inactive |
| Cc1nn(-c2ccccc2)c2c1CC(=O)Nc1ccccc1-2 | active: 1.3 µM |
| CCCCn1c(CCc2ccccc2)nc2cc3[nH]c(=O)c(C(C)C)nc3cc21 | inconclusive [activator, single point] |
| CN(C)c1ccc(NC(=O)c2cccc(C(=O)Nc3ccc(N(C)C)cc3)n2)cc1 | inactive |
| CNc1nc(N/N=C/c2cc3c(cc2[N+](=O)[O-])OCO3)nc(Nc2ccccc2)n1 | inconclusive [activator, single point] |
| COc1cccc(/C=N/NC(=O)CNC(=O)c2ccc3c(c2)OCCO3)c1O | inconclusive [activator, single point] |
| Cc1ccc(CCC(=O)Nc2ncc(Cc3cccc(Cl)c3Cl)s2)o1 | inconclusive [activator, full curve, poor fit] |
| COc1ccc(C)cc1NC(=O)COC(=O)c1c(C)nn(-c2ccccc2)c1C | inconclusive [activator, single point] |
| Cn1c2ccccc2c(=O)c2cc(C#CC3=CCCCC3)ccc21 | inconclusive [activator, single point] |
| COc1cc(/C=C2\SC(=O)N(c3ccccc3Cl)C2=O)cc([N+](=O)[O-])c1O | inconclusive [activator, single point] |
| Cc1ccc(C)c(N/C(N)=N/c2nc(C)cc(C)n2)c1 | inactive |
| Cc1cc(OCC(=O)NNC(=S)NCC2CCCO2)cc(C)c1Cl (stereo unspecified) | inconclusive [activator, partial curve, poor fit] |
| O=C(N/C(=C/c1ccc(Cl)cc1)c1nc2ccccc2[nH]1)c1ccco1 | inconclusive [activator, partial curve, poor fit] |
| COc1ccc(-c2[nH]ncc2/C=C(/C#N)C(=O)NC2CCCCC2)cc1 | inconclusive [activator, partial curve] |
| CCN(CC)Cc1c(O)c(Cl)cc2c(C)c(C)c(=O)oc12 | inconclusive [activator, single point] |

Reference: PubChem BioAssay AID624296 (National Center for Advancing Translational Sciences (NCATS), 2012)
